Among all 44,000 compounds or so, about 340 (0.77%) were called active. Roughly 5% stayed inconclusive and do not appear here. The call rests on the fitted dose curve; in most records, active means well fitted inhibition curve with a large enough effect; inconclusive means small, poorly fitted or top-dose-only effect; inactive means flat fitted curve, though single readings scatter. Some of the results follow.
Test: Acumen qHTS Assay for Inhibitors of the mTORC1 Signaling Pathway in MEF (Tsc2-/-, p53-/-) Cells: Sytravon;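 further: plate controls were DMSO for no effect and rapamycin for full effect; nearly all actives have a fitted effect of over 50% in size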
Details: phospho-rpS6 immunofluorescence/PI, 24 h; series mostly up to 38.3 µM; activity change, negative = inhibition: at the top concentration
How it was run: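 Tsc2-/-, p53-/- mouse embryonic fibroblasts (empty-vector line) exposed to compound 24 hrs at 37 C, fixed, immunostained for phospho-rpS6 and counterstained with propidium iodide. Acumen laser scanning gives % positive cells from Alexa 488/PI ratio, thresholded using 7.5 nM rapamycin; PI count gives viability.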

SMILES | activity change, negative = inhibition
CCCCN1C(=O)c2[nH]nc(-c3ccccc3O)c2C1c1ccc(OCc2ccccc2)cc1 (stereo not given) | inactive: -6.25%
COc1ccccc1NC(=O)CSc1nnc(NC(=O)Nc2ccc(C)cc2)s1 | inactive: -19.2%
CN(C)CCNC(=O)c1ccc2c(c1)NC(=O)C(CS(=O)(=O)Cc1cccc(Br)c1)N2 (stereo not given) | inactive: 0.31%
Cc1ccc(S(=O)(=O)N2CCCc3cc(NS(=O)(=O)c4cccc(Cl)c4)ccc32)cc1 | inactive: 4.16%
COc1ccccc1CNC(=O)c1c(O)nc2c(C)cccn2c1=O | inactive: 5%
CCc1ccc(NC(=O)C2CCCN2S(=O)(=O)c2ccc3c(c2)n(C)c(=O)c(=O)n3C)cc1 (stereo not given) | inactive: -11.1%
COc1ccccc1CNC(=O)CN(C)c1nn2c(=O)cc(C)nc2s1 | inactive: 1.7%
COc1ccc2c(c1)cc1c(=O)n(CC(=O)NC(C)C)nc(C)n12 | inactive: -6.99%
CC(=O)c1ccc(NC(=O)CSc2nnc3ccc(-c4ccc(Br)cc4)nn23)cc1 | inactive: -0.499%
COc1ccccc1NC(=O)CCC(=O)N1CC(C)Oc2ccc(C)cc21 (stereo not given) | inactive: -7.46%
Cc1nn(-c2ccccc2)c2c1cc1c(=O)[nH]c(=O)nc-1n2-c1cccc(Cl)c1 | inactive: 0.242%
COc1ccccc1NC(=O)CSc1nnc(NC(=O)NC2CCCCC2)s1 | inactive: -10.7%
Cc1ccc(CNC(=O)C2CCN(S(=O)(=O)c3cccc4nonc34)CC2)cc1 | inactive: 3.71%
Cc1cc(=O)c2cc(C(=O)Nc3ccc(C)c(C)c3)ccc2[nH]1 | inactive: -1.46%
Cc1ccc2oc(C(=O)Nc3ccc(S(=O)(=O)N(C)c4ccccc4)cc3)cc(=O)c2c1 | inactive: 4.06%
CCc1ccc(NCc2cc3cc4c(cc3n(CC(=O)Nc3ccccc3OC)c2=O)OCCO4)cc1 | inactive: -1.6%
Cc1cc(NC(=O)Nc2nnc(N(C)C3CCCCC3)s2)ccc1Br | inactive: 1.2%
COc1ccc(C(=O)N2CCC(c3nc4ccccc4s3)CC2)cc1Cl | inactive: -0.603%
Cc1ccc(S(=O)(=O)CCC(=O)Nc2ccc(OC(F)(F)F)cc2)cc1 | inactive: 2.98%
CCc1ccccc1NC(=O)Cn1c(=O)n(CCCCCC(=O)NCc2ccc(C)cc2)c(=O)c2sccc21 | inactive: 0.87%

SMILES | activity change, negative = inhibition
O=C(c1ccc2c(c1)N(Cc1ccccc1F)C(=O)c1ccccc1S2(=O)=O)N1CCc2ccccc21 | inactive: -2.63%
CCC(Sc1nc2ccncc2[nH]1)C(=O)Nc1cc(Cl)ccc1C (stereo not given) | inactive: -8.69%
COc1cc(Cl)c(C)cc1NC(=O)CSc1nc2c(c(=O)[nH]1)CCC2 | inactive: -2.47%
CCc1ccc(S(=O)(=O)c2nnn3c2nc(N2CCOCC2)c2sccc23)cc1 | inactive: 2.53%
CCOC(=O)c1cccc(NC(=O)CC2C(=O)N(c3ccc(Cl)cc3)C(=O)N2C2CCCC2)c1 (stereo not given) | inactive: -8.8%
Cc1ccc(N2CC(c3nc(-c4ccc(Cl)cc4)no3)CC2=O)cc1F (stereo not given) | inactive: 0%
Cc1cc(N2CCC(C(=O)Nc3ccc(F)cc3C)CC2)n2nc(C)c(-c3ccc(Cl)cc3)c2n1 | inactive: -24.3%
Cc1cc(-c2ccccc2)n2nc(-c3ccc(Cl)cc3)cc2n1 | inactive: -0.225%
Cc1cc(Br)ccc1NC(=O)C1CCCN(S(=O)(=O)c2cccc3nonc23)C1 (stereo not given) | inactive: -16.2%
COc1ccc2cc3cc(C(=O)Nc4cc(C)c(Cl)cc4OC)oc3nc2c1 | inactive: -3.47%
CC(=O)c1cccc(NS(=O)(=O)c2cc(-c3onc(C)c3C)ccc2C)c1 | inactive: -13.9%
COc1ccc(NC(=O)CSc2oc(-c3ccc(F)cc3)nc2S(=O)(=O)c2ccc(C)cc2)c(OC)c1 | inactive: -1.04%
Cc1sc2c(c1C)c(=O)n(-c1ccc(Cl)cc1)c(=O)n2Cc1cc(=O)n2cc(Br)ccc2n1 | inactive: 4.49%
COc1cc(Cl)c(NC(=O)c2cc(S(=O)(=O)N3CCCCC3)c[nH]2)c(OC)c1 | inactive: -2.74%
CCOc1ccccc1NC(=O)CSc1nc2c(sc3ccccc32)c(=O)n1CCCC(=O)NC1CCCC1 | inactive: -7.69%
COc1cc(NC(=O)C2CCN(S(=O)(=O)c3ccc4c(c3)CCCC(=O)N4)CC2)cc(OC)c1 | inactive: -13.6%
CCOC(=O)c1c(S(=O)(=O)N2CCCC(C(=O)NCc3ccccc3Cl)C2)c(C)n(C)c1C (stereo not given) | inactive: -11.7%
COc1cccc(CNC(=O)c2ccc(CNS(=O)(=O)c3ccc(C)cc3)cc2)c1 | inactive: 0.619%
CCN(c1ccccc1)S(=O)(=O)c1nnc(NC(=O)c2ccccc2)s1 | inactive: 6.27%
O=C(Nc1ccccc1)N(Cc1c[nH]c2ccccc12)C1CCCCCC1 | inactive: -12.4%

SMILES | activity change, negative = inhibition
Cc1cccc(OCc2nc(CC(=O)Nc3ccc(C)cc3C)cs2)c1 | inactive: -2.13%
Cc1cccc(N2CCN(C(=O)c3cnn(-c4ccccc4Cl)c3C3CCN(C(=O)OC(C)(C)C)CC3)CC2C)c1 (stereo not given) | inactive: 6.85%
COc1ccc(S(=O)(=O)NCCc2sc(-c3cccnc3)nc2C)c(F)c1 | inactive: -7.35%
CCc1ccc(C2c3c(oc4ccc(F)cc4c3=O)C(=O)N2CCc2ccc(OC)cc2)cc1 (stereo not given) | inactive: 13.2%
CC1CCc2c(sc3nnn(CCCCOc4ccc(Cl)cc4)c(=O)c23)C1 (stereo not given) | inactive: -2.43%
COc1ccc(CNCCCSc2nnnn2-c2ccccc2)cc1 | inactive: 0.452%
CCOC(=O)c1c(NC(=O)c2cc(OCC)c(OCC)c(OCC)c2)sc2c1CCCCC2 | inactive: 1.04%
Cc1ccc(CNC(=O)Cn2c(=O)ccc3cc(S(=O)(=O)N4CCC(C)CC4)ccc32)cc1 | inactive: -12.5%
COc1ccc(-c2cc(C(=O)NC(C)c3ccccc3)c3cc(C(C)C)ccc3n2)cc1 (stereo not given) | inactive: 11.5%
CCN(CC)CCNC(=O)C(=O)NCC(c1cccnc1)N1CCN(c2ccc(F)cc2)CC1 (stereo not given) | inactive: 3.44%
O=C(Nc1ccccc1C(F)(F)F)c1cc(-c2ccc3c(c2)OCCO3)on1 | inactive: -1.14%
Cc1c(Cl)cccc1NC(=O)CNS(=O)(=O)c1cccs1 | inactive: -1.2%
Cc1nc2sccn2c(=O)c1S(=O)(=O)Nc1ccc(N2CCOCC2)cc1 | inactive: -4.73%
Cc1ccc(C2CCN(C(=O)Nc3ccc(Cl)cc3)C2)cc1 (stereo not given) | inactive: 0.579%
Cc1cc(=O)[nH]c2nnc(SCc3c(F)cccc3Cl)n12 | inactive: -1.69%
CCOc1ccc2c(c1)sc1nc(=O)n(-c3ccc(Cl)c(Cl)c3)c(=O)n12 | inactive: 8.54%
Cc1ccc(OCc2nc(-c3ccc(C(=O)N4CCN(c5cccc(C(F)(F)F)c5)CC4)cc3)oc2C)cc1 | inactive: -0.865%
CSc1cccc(NC(=O)C2CCN(S(=O)(=O)c3ccc4c(c3)CCCN4C(=O)C3CCC3)CC2)c1 | inactive: -10.2%
COc1ccc(N(CC(C)C)S(=O)(=O)c2nnc(NC(=O)c3cccs3)s2)cc1 | inactive: -8.69%
Cc1cccc(NC(=O)c2ccc3c(O)c(S(=O)(=O)c4ccccc4)c(=O)[nH]c3c2)c1C | inactive: 0.835%
